# In PubChem BioAssay AID652104 (National Center for Advancing Translational Sciences (NCATS), 2013):
# Hit rate of the full screen: of about 410,000 compounds, about 7,200 (1.8%) were called active. This list was built around the results that the source calls inconclusive (neither active nor inactive); the mix of calls is not that of the screen. Calls come from the whole dose curve; as a rule, active = well fitted activation curve with a large enough effect; inconclusive = small, poorly fitted or top-dose-only effect, or another doubt; inactive = no such curve, though single readings can be large or run the other way. No potency is given beside an inconclusive call; the fits are too rough.
# Test: qHTS of TDP-43 Inhibitors; note: nearly all actives have a fitted effect of over 50% in size; for growth rescue (activation): % of control where 0% means no effect
# Settings: TDP-43 expressing yeast growth rescue, BacTiter-Glo, 24 h; growth rescue (activation): at 46.1 µM (top of the series) unless noted
# Outline: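 Yeast cells expressing TDP-43 under galactose induction are exposed to compounds for 24 hr at 30 deg C. BacTiter-Glo luminescence measures growth, so protective compounds score as activators.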
# Potency is the fitted concentration of half-maximal effect; tags give direction and shape of the fitted curve.
SMILES,Potency,growth rescue (activation)
COc1ccccc1-c1nn2c(C3COc4ccccc4O3)nnc2s1 (centres undefined),active: 10 µM,
Cc1c(CCNC(=O)c2ccco2)sc2nc(-c3ccc(F)cc3)nn12,"inconclusive [activator, single point]",
CCc1nc(OCCN(C)C)c2oc3ccccc3c2n1,"inconclusive [activator, full curve]",
CCCCn1c(-c2csc(CC)c2)n[nH]c1=S,"inconclusive [activator, partial curve]",
CCOC(=O)C1CCCN(C(=O)c2csc(-c3ccc4c(c3)CCO4)n2)C1 (centres undefined),"inconclusive [activator, single point]",
COc1ccc(N(CC(=O)Nc2cc(C)on2)S(=O)(=O)c2cc(C)ccc2C)cc1,"inconclusive [activator, single point]",
Cc1ccc(/C=N/NC(=O)CSc2nc3ccccc3n2Cc2ccc(Cl)cc2)o1,"inconclusive [activator, single point]",
CCOc1ccc(OCC)c(NC(=O)Cn2nc(CC)n3c(cc4sccc43)c2=O)c1,,inactive: 16.5%
CCN(CC(=O)Nc1ccc2c(c1)OCCO2)C(=O)/C=C/c1ccccc1,,inactive: 19.6%
CC(C)(C)Cc1c(-c2ccc(Cl)cc2)nc2ccc(Br)cn12,active: 35.5 µM,
COc1ccc(C2c3sc(=O)[nH]c3SC3C4CCC(C4)C23)cc1OC (centres undefined),"inconclusive [activator, single point]",
CCOC(=O)C1CCN(C(=O)COc2cc(C)c(Br)cc2C)CC1,"inconclusive [activator, single point]",
CCN(c1cccc(C)c1)c1ncnc2nc[nH]c12,"inconclusive [activator, partial curve]",
NC(=S)N/N=C/c1ccc2ccccc2c1,"inconclusive [activator, full curve, poor fit]",
Cc1oncc1C(=O)Nc1ccc2ccccc2c1,"inconclusive [activator, partial curve]",
CN(Cc1ccc(F)cc1)Cc1nc(CCc2ccccc2)no1,"inconclusive [activator, partial curve]",
COCC(=O)Nc1c(C(=O)Nc2ccc3c(c2)OCCO3)oc2ccccc12,"inconclusive [activator, single point]",
CCOC(=O)N1CCC(NC(=O)c2ccc3c(c2)N=C(CC)c2ccccc2S3)CC1,"inconclusive [activator, partial curve]",
CCOc1ccccc1NC(=O)C(OC(=O)c1ccc(O)cc1)c1ccccc1 (centres undefined),"inconclusive [activator, single point]",
CCOC(=O)c1sc2nc(NC(=O)COc3ccccc3)sc2c1C,"inconclusive [activator, partial curve]",
CC(C)N(C)C1CCN(S(=O)(=O)c2ccc3[nH]c(=O)ccc3c2)CC1,,inactive: 16.5%
c1ccc(-c2csc3nnc(SCc4ccc5c(c4)OCO5)n23)cc1,"inconclusive [activator, single point]",
CCOC(=O)[C@@H]1[C@H]2COc3ccc(Br)cc3[C@H]2N2C(=O)N(c3ccc(Cl)cc3)C(=O)[C@]12C,"inconclusive [activator, partial curve]",
CCNc1ccc(C(=O)OCC)cc1NC(=O)c1cccc(S(=O)(=O)N(C)c2ccccc2)c1,,inactive: 0%
COc1ccccc1C(=O)N1CCC(c2noc(-c3ccc(S(=O)(=O)N4CCCC4)cc3)n2)CC1,,inactive: 8.71%

SMILES,Potency,growth rescue (activation)
O=C(c1ccco1)N1CCN(c2ncnc3c2nnn3Cc2ccccc2Cl)CC1,"inconclusive [activator, single point]",
CC(NC(=O)c1ccc2c(c1)OCCO2)C(=O)O (centres undefined),,inactive: -7.9%
CCOC(=O)c1cc(-c2cccs2)nc2onc(C)c12,,inactive: 1.68%
Cc1cc2c(SCC(=O)NC3CCCCC3)ncnc2s1,,inactive: 1.29%
CCCc1cc(C(=O)Nc2ccccc2SC)no1,"inconclusive [activator, single point]",
Cc1cc(C)c(C#N)c(SC2CCCCC2=O)n1 (centres undefined),"inconclusive [activator, single point]",
O=C1OCCC1Sc1nc2cc(Cl)ccc2n1Cc1ccccc1 (centres undefined),active: 35.5 µM,
Cc1nn(C)c(C(=O)NC2C3CC4CC(C3)CC2C4)c1Cl (centres undefined),active: 10 µM,
CC(Sc1nnc(-c2ccncc2)n1C)C(=O)Nc1nccs1 (centres undefined),,inactive: -9.74%
O=C(O)c1cc(NCc2ccc(F)cc2)ccc1N1CCOCC1,,inactive: -8.49%
Cc1cc(C)cc(N2C(=O)CSC23C(=O)N(CC(=O)Nc2ccc(F)cc2F)c2ccccc23)c1 (centres undefined),,inactive: 25.9%
CCOC(=O)C1=CCN(S(=O)(=O)c2ccccc2Cl)C1c1cccc(C)c1 (centres undefined),"inconclusive [activator, full curve, poor fit]",
CCOC(=O)N1CCN(C(=O)c2ccc3ccccc3c2)CC1,"inconclusive [activator, partial curve]",
O=C(NC1CC1)c1cc2c(s1)-c1ccccc1OC2,"inconclusive [activator, partial curve]",
CCOC(=O)c1c(C)oc2ncnc(N3CCN(c4ccccc4F)CC3)c12,"inconclusive [activator, single point]",
Cc1nc([N+](=O)[O-])c(Br)n1Cc1ccc(Cl)c(Cl)c1,active: 14.1 µM,
O=C(Nc1ccccc1C(=O)NCc1ccccc1)c1ccccc1,"inconclusive [activator, single point]",
O=C(CN1CCN(CC(=O)Nc2ccccc2F)CC1)Nc1ccc2c(c1)OCCO2,,inactive: 11.5%
COC(=O)c1sccc1NC(=O)Nc1cccc(C(C)=O)c1,"inconclusive [activator, partial curve]",
CC(=O)c1c(N2CCOCC2)nc2ccc(Cl)cc2c1-c1ccccc1,"inconclusive [activator, single point]",
CCCCCC(=O)NC(=S)Nc1ccc2oc(=O)ccc2c1,"inconclusive [activator, partial curve]",
Cc1ccccc1CS(=O)(=O)c1nnc([C@H](CC(C)C)NC(=O)OC(C)(C)C)o1,,inactive: -63.2%
CC(C)OC(=O)CSc1nc(N)c(C#N)c(-c2cccs2)c1C#N,,inactive: 10.4%
C=CCc1cccc2cc(C(=O)NC)c(=O)oc12,"inconclusive [activator, partial curve]",
CC(C)(C)c1ccc(C(=O)NCCc2csc3nc(-c4ccccc4F)nn23)cc1,active: 35.5 µM,

SMILES,Potency,growth rescue (activation)
Cc1ccc(C)c(N2CCN(C(=O)CCc3nc(-c4ccccc4F)no3)CC2)c1,"inconclusive [activator, single point]",
Cc1nn(-c2ccccc2)c(C)c1C(=O)OCC(=O)c1c(N)n(CC(C)C)c(=O)n(C)c1=O,"inconclusive [activator, partial curve, poor fit]",
COc1ccc(C(=O)n2cnc3ccccc32)cc1Br,"inconclusive [activator, single point]",
Cc1cc(C(=O)OCC(=O)NCc2ccc(F)cc2)c2ccccc2n1,,inactive: 20.3%
COC(=O)c1cc(NC(=O)Nc2ccccc2)ccc1Cl,"inconclusive [activator, partial curve, poor fit]",
COc1ccc(Cl)cc1NS(=O)(=O)c1ccc2[nH]c3c(c2c1)CCCC3,active: 12.6 µM,
CCCOc1cccc(NC(=O)c2c(-c3ccccc3Cl)noc2C)c1,"inconclusive [activator, partial curve]",
COc1ccccc1OCCn1nc2ccccc2c1OC,"inconclusive [activator, single point]",
CN(Cc1ccccc1)C(=O)c1ccc2c(c1)N(Cc1ccccc1F)C(=O)c1ccccc1S2(=O)=O,,inactive: 0.535%
COc1cccc(OCc2cc(C(=O)N(C)Cc3nc(C)cs3)no2)c1,"inconclusive [activator, partial curve]",
Cc1nc(Br)c(Br)n1Cc1ccccc1,active: 11.2 µM,
Cc1nc(SC2CC(=O)N(c3ccccc3)C2=O)n[nH]1 (centres undefined),active: 4.47 µM,
Cc1ccc(/C(N)=N/OC(=O)c2ccc3ccccc3c2)cc1,active: 1.26 µM,
COc1ccc(OCCn2cnc(Cl)c2Cl)cc1,,inactive: 15.7%
COc1ccc(C=CC(=O)c2ccc(OC)c(OC)c2)cc1O,"inconclusive [activator, partial curve]",
O=C(COc1ccccc1Cl)NCc1ccccc1,"inconclusive [activator, partial curve]",
O=C(Nc1nc2ccccc2c(=O)s1)c1ccc(F)cc1Cl,"inconclusive [activator, partial curve, poor fit]",
CCCCn1c(SCC(=O)Nc2cc(C)on2)nc2ccccc2c1=O,,inactive: -18.8%
CC(=O)Nc1ccc(-c2cc(C(=O)O)c3c(-c4ccccc4)[nH]nc3n2)cc1,,inactive: 16.9%
COc1cccc(-c2nc(NCC3CCCO3)c3ccccc3n2)c1O (centres undefined),"inconclusive [activator, partial curve]",
O=C(Cc1c(F)cccc1Cl)c1ccc(O)cc1O,active: 15.8 µM,
CC(Oc1cccc(Br)c1)C(=O)N1CCCN(C)CC1 (centres undefined),"inconclusive [activator, partial curve]",
c1csc(CCNc2ncnc3sc4c(c23)CCC4)c1,"inconclusive [activator, partial curve]",
COc1cccc(CN(C(=O)c2oc3cc(C)ccc3c2C)C2CCS(=O)(=O)C2)c1 (centres undefined),,inactive: -7.52%
